Test results published in publication PMC4336329 (PLoS ONE, 2015).
About 2,200 (0.71%) of roughly 310,000 compounds showed an effect of 50% or more. The effect is printed as a negative number. The list shows a part of the results.

Molecular target: human ether-à-go-go-related gene (hERG) potassium channel (human, UniProt Q12809)
Experiment: primary screen, population patch clamp on CHO cells stably expressing hERG

Chain of human ether-à-go-go-related gene (hERG) potassium channel (Q12809 whole entry, looked up): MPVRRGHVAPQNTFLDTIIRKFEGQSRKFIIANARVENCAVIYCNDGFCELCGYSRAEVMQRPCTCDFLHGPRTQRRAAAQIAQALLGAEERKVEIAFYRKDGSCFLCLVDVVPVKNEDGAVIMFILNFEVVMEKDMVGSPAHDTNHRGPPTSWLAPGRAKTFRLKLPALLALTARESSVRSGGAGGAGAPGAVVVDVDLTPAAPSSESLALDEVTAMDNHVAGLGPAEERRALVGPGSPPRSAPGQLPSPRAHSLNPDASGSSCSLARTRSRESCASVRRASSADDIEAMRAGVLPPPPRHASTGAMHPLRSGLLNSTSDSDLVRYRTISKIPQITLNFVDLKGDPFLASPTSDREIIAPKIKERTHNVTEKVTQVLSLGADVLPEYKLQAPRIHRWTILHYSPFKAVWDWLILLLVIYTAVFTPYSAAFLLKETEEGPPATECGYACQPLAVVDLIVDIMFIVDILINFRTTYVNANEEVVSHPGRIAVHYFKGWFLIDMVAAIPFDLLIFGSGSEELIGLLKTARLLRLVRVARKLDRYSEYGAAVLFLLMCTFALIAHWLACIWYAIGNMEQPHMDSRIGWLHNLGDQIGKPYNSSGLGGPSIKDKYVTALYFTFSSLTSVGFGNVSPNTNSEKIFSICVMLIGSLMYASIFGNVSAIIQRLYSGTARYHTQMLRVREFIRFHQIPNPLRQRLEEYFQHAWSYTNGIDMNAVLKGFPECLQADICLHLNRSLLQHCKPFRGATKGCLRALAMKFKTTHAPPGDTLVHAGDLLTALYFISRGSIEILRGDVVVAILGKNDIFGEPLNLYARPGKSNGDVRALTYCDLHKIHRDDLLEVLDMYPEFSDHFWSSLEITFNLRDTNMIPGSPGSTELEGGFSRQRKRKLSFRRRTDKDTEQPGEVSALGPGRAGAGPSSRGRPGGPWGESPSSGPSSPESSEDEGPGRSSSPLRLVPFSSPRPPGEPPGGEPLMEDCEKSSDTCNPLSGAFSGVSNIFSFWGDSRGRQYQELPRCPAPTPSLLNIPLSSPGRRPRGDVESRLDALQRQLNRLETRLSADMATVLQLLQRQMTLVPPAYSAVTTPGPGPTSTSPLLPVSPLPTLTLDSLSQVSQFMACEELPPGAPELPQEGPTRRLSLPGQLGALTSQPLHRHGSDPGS

| SMILES | hERG current change (%, negative = inhibition) at 1uM |
| --- | --- |
| Cc1ccc(C(=O)COC(=O)C2CC3CCCC(C2)C3=O)cc1[N+](=O)[O-] (centres unmarked) | 11.7% |
| CCc1nn2cc(-c3ccccc3)nc2s1 | 9.57% |
| COc1cccc(-n2nnc3c(=O)n(CC(=O)N4CCCCC4)cnc32)c1 | 4.88% |
| CNC(=O)c1ccccc1Sc1ccccc1C#N | 15.5% |
| O=C(O)c1ccccc1C(=O)NCCc1ccc(Cl)cc1 | 12.8% |
| CCOc1ccccc1CNC(=O)CCc1cn(C)c2ccccc12 | 17.4% |
| Cc1ccc(S(=O)(=O)NCCN2CCNC2=O)cc1 | 8.97% |
| OCCN(CC#CCC(O)(c1ccccc1)C1CCCC1)CCO (centres unmarked) | 11.1% |
| CCOC(=O)c1cc2sccc2n1CC(=O)N1CCCC1 | 4.26% |
| O=C(O)c1ccc(N=NN2CCOCC2)cc1 | 7% |
| COc1cc([N+](=O)[O-])ccc1NC(=O)CSc1ccccn1 | 3.11% |
| CCn1c(SCC(=O)Nc2ccc3c(c2)OCCO3)nnc1-c1cccs1 | -11.9% |
| CC1CCC2(CC1)C(Nc1cccc(Cl)c1)=NC(=S)N2CC#N (centres unmarked) | 13.4% |
| COc1cccc(-c2nc(CSCC(=O)N3CCc4ccccc43)c(C)o2)c1 | 7.95% |
| CCCCCCCOc1ccc(-c2ccc(C#N)cn2)cc1 | 4.27% |
| CN(C)CC1CCCCC1C1(O)c2ccccc2CSc2sccc21 (centres unmarked) | 4.1% |
| O=C(c1cc2c(s1)-c1ccccc1OC2)N1CCN(c2ccccn2)CC1 | -0.51% |
| CCC(=O)c1ccc(N2CCN(C(=O)COc3ccccc3F)CC2)c(F)c1 | -19.1% |
| CCOC(=O)N1CCC(NC(=O)c2cc(COc3c(C)cccc3C)on2)CC1 | -3.61% |
| O=C(NCc1ccc2c(c1)OCO2)c1cc(=O)[nH]c2ccccc12 | 12.4% |
| COc1ccccc1CNC(=O)Cn1cccc1C(=O)c1ccccc1 | 14.4% |
| Cc1nc2ccc(S(=O)(=O)NC(C(=O)NCc3ccc4c(c3)OCO4)C(C)C)cc2s1 (centres unmarked) | 13.5% |
| N#Cc1ccc(OCc2nnc(-c3ccc([N+](=O)[O-])cc3)o2)cc1 | -10.9% |

| SMILES | hERG current change (%, negative = inhibition) at 1uM |
| --- | --- |
| Cc1cccc(OCCCCCn2ccnc2)c1C | 2.78% |
| CCCCOc1ccc(Cc2c(COCC)[nH]c(=S)[nH]c2=O)cc1 | 13% |
| O=C(COc1ccccc1Cl)Nc1cccnc1 | -1.57% |
| COCCn1c(SCC(=O)NCc2ccccc2)nc2ccccc21 | 8.71% |
| CS(=O)(=O)N1CCCC(C(=O)Nc2ccc(F)cc2)C1 (centres unmarked) | 13.8% |
| COc1cc(NC(=O)CCCC(=O)OCC(F)(F)C(F)F)nc(OC)n1 | 5.08% |
| O=C(N/N=C\c1cccnc1)c1cc(-c2ccc(Cl)s2)[nH]n1 | 8.22% |
| COc1ccc(S(=O)(=O)N2CCOCC2)cc1NC(=O)Cc1ccccc1Cl | 9.04% |
| COCC1CCCN(C(=O)c2ccc3oc(Cc4ccc(Cl)cc4)nc3c2)C1 (centres unmarked) | 5.51% |
| Cn1c(SCC(=O)N2c3ccccc3CCc3ccccc32)nnc1-c1cc2ccccc2cc1O | 9.91% |
| Cc1ccc(C(C)C)cc1OCCOCCN1CCCC1 | -1.76% |
| O=C1CC(SC(=Nc2ccccc2)Nc2ccccc2)C(=O)N1c1cccc2ccccc12 (centres unmarked) | 14.8% |
| CCN1C(=O)C2C(C1=O)N1C(c3cccs3)C3C(=O)N(CC)C(=O)C3N1C2c1cccs1 (centres unmarked) | 12.4% |
| O=C(C1CCN(c2nnc(-n3cccc3)s2)CC1)N1CCOCC1 | -2.26% |
| CCOc1ccccc1CN1C(=O)c2ccccc2C1C(=O)NCC1CCCO1 (centres unmarked) | 4.32% |
| CCOC(=O)Cc1csc(NC(=O)C(C)(C)CC)n1 | 9.85% |
| O=c1c2cc3c(cc2[nH]c(=S)n1Cc1ccco1)OCO3 | 13.5% |
| Cc1cc(Nc2cccc(F)c2)n2nc(C)nc2n1 | 3.86% |
| O=S(=O)(NCC(O)COCc1ccco1)c1cccs1 (centres unmarked) | 24.4% |
| Nc1c(C(=O)OCC2CCCO2)c2nc3ccccc3nc2n1-c1ccc2c(c1)OCCO2 (centres unmarked) | 11.8% |
| O=C(CN1C(=O)NC2(CCc3ccccc32)C1=O)c1ccc(F)c(F)c1 (centres unmarked) | 0.854% |
| CCOC(=O)c1c(NC(=O)NC(C)(C)C)sc2c1CCN(C)C2 | 3.53% |
| CSc1nc(N)nc(SCC(=O)C(C)(C)C)c1C#N | 4.52% |

| SMILES | hERG current change (%, negative = inhibition) at 1uM |
| --- | --- |
| COc1ccc2[nH]c(C)c(CCNCc3cc(OC)c4c(c3)OCO4)c2c1.O=C(O)C(=O)O | 7.72% |
| CCCN(C(=O)c1ccc(N2CCCC2=O)cc1)c1c(N)n(Cc2ccccc2)c(=O)[nH]c1=O | 4.98% |
| Cc1cc(C)c(OCC(=O)OCC(=O)NNC(=O)c2ccccc2F)c(C)c1 | 16.1% |
| CN(CC(=O)Nc1cccc(F)c1)C(=O)CCN1C(=O)C2CC=CCC2C1=O (centres unmarked) | 8.97% |
| CC1(C(=O)Nc2ccc3c(c2)OCO3)CC1(Cl)Cl (centres unmarked) | 15.2% |
| COc1ccc(C(=O)CSc2nccc(=O)[nH]2)cc1 | -0.7% |
| COc1ccc(S(=O)(=O)N2CCc3ccccc32)cc1NC(C)=O | 11.3% |
| CN(C)/C=N/c1ncc(C(=O)OC(C)(C)C)s1 | -0.161% |
| O=C(CC12CC3CC(CC(C3)C1)C2)N/N=C\c1ccc[nH]1 | 6.87% |
| CS(=O)(=O)Nc1ccc(C(=O)NCCC2=CCCCC2)cc1 | -30.9% |
| COc1ccccc1N1CCN(C(=O)CNC(=O)c2cn(-c3ccccc3OC)c(=O)c3ccccc23)CC1 | 4.27% |
| O=C(CSc1nccc(=O)[nH]1)Nc1ccc(Br)c(Cl)c1 | 19.7% |
| CC1(C)CC(NC(=O)COc2cc3oc(=O)c4c(c3cc2Cl)CCC4)CC(C)(C)N1 | 17.1% |
| Cc1cccc(-c2noc(CN(C(=O)/C=C/c3ccccc3Cl)C(C)C)n2)c1 | 12.3% |
| CC(C)N1CCC(N2CCN(Cc3ccc(C#CC(C)(C)O)s3)CC2CCO)CC1 (centres unmarked) | 11.6% |
| CCn1c2ccccc2c2cc(NC(=O)c3cccc(OC)c3)ccc21 | 3.02% |
| COc1ccc(-c2nc3n(n2)C(c2ccccc2Cl)C(C(N)=O)=C(C)N3)cc1 (centres unmarked) | -3.77% |
| CNS(=O)(=O)c1cc(NC(=O)CCNC(=O)c2ccco2)ccc1C | 12.5% |
| O=c1c(C(c2ccc(Br)cc2)c2c(O)nc3n(c2=O)CCCS3)c(O)nc2n1CCCS2 | 14.1% |
| CC/C=C/C(=O)N1CC2(CC(c3cccc(NC(=O)CC)c3)=NO2)C[C@H]1C(N)=O (some centres unmarked) | 13.8% |
| Cc1nc2cc3sc(C)nc3cc2s1 | 13.7% |
| Cc1cc([N+](=O)[O-])nn1CC(=O)NCCc1c[nH]c2ccccc12 | 20.6% |
| O=C(Nc1cccc2cccnc12)c1cccnc1 | 7.11% |

| SMILES | hERG current change (%, negative = inhibition) at 1uM |
| --- | --- |
| O=C(N/N=C/C=C/c1ccco1)C(O)c1ccccc1 (centres unmarked) | 13.4% |
| CCOc1cc(/C=C\[N+](=O)[O-])ccc1OCC(=O)Nc1ccccc1C | 6.9% |
| Nn1c(C2CCC2)nc2cc(Cl)ccc2c1=O | 10.9% |
| Cc1nc(-c2ccccc2)nc(-c2ccccc2)n1 | 2.39% |
| Cc1ccc(C)c(-n2nnnc2SCC(=O)c2c(N)n(C)c(=O)n(C)c2=O)c1 | 7.61% |
| CCOC(=O)NNC(=O)C12CC3CC(CC(C3)C1)C2 | 13.4% |
| O=C(CCCNC(=O)c1ccc(Cl)cc1)NCc1ccccc1Cl | -1.33% |
| Cc1cc(C)cc(-c2nnc(SCC(=O)NC3CC3)o2)c1 | 0.448% |
| CC(Sc1ncccn1)C(=O)NC1(C#N)CCCCC1 (centres unmarked) | 14.1% |
| COc1ccc(CNC(=O)C2CCCN(c3nccc(C)n3)C2)cc1 (centres unmarked) | -3.39% |
| NNC(=S)NC1CCS(=O)(=O)C1 (centres unmarked) | 14.2% |
| Cc1cc(C)n(C(C)CNS(=O)(=O)c2ccc(C)c(C)c2)n1 (centres unmarked) | 16.3% |
| COc1ccc(Cl)cc1NC(=O)C[n+]1ccccc1.[Cl-] | 9.24% |
| COc1cccc(NC(=O)Cn2c(=O)n(CC3CCCO3)c(=O)c3ccccc32)c1 (centres unmarked) | 11.5% |
| CC(C)Oc1ccc(C(=O)NCCCNC(=O)c2ccccn2)cc1 | 12.2% |
| Cc1ccc(C)c(S(=O)(=O)N2CCCOC2CNC(=O)C(=O)NCc2ccccc2)c1 (centres unmarked) | 14.1% |
| CC(C)c1ccc(NC2CCCN(C(=O)CC3CCCC3)C2)cc1 (centres unmarked) | 1.09% |
| Cc1ccc(CNC(=O)c2cc(Cl)cc(Cl)c2)n1C | 2.27% |
| O=CNC(n1cnc2c(N3CCOCC3)ncnc21)C(Cl)(Cl)Cl (centres unmarked) | 9.52% |
| COc1cc(C=O)ccc1OCc1cccc(Br)c1 | 6.9% |
| CC(C)(C)c1cc(CCC(=O)NNC(=S)NC(=O)c2ccccc2)cc(C(C)(C)C)c1O | 8.25% |
| O=C1N2CCSC2=NC1(Nc1ccccn1)C(F)(F)F (centres unmarked) | 9.13% |
| COc1cccc(CNC(=O)CSc2ccc(-c3ccccn3)nn2)c1 | 2.34% |
